We go through one molecule from PubChem BioAssay (NCI).

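These data come from cells grown in 96-well plates and exposed to compound for 48 hours at five concentrations. The concentration for 50% growth inhibition is given as GI50. TGI marks complete inhibition of growth.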 A value given as a limit tells only on which side of the number the result lay.

The test system of this assay is MDA-MB-468 breast. Nature of the assay: DTP human tumour cell line panel, 48 h.

Turning to `CN[C@@H]1C[C@H]2O[C@@](C)([C@@H]1OC)n1c3ccccc3c3c4c(c5c6ccccc6n2c5c31)C(=O)NC4`, the concentration for 50% growth inhibition (GI50) is below 10 nM and the TGI was below 10 nM.
